According to paper PMC4040332 (ChemMedChem, 2013):

Test system: S. aureus
Experiment: Cell wall lysis assay
Conditions: 24 hours, tetracycline at concentrations up to 100-times the published MIC50

| SMILES | luminescence response (cell lysis control) |
| --- | --- |
| CC1(C)S[C@@H]2[C@H](NC(=O)[C@H](N)c3ccccc3)C(=O)N2[C@H]1C(=O)O [ampicillin] | dose-dependent increase in luminescence |
| CN(C)[C@@H]1C(O)=C(C(N)=O)C(=O)[C@@]2(O)C(O)=C3C(=O)c4c(O)cccc4[C@@](C)(O)[C@H]3C[C@@H]12 [tetracycline] | no increase in luminescence |
